In PubChem BioAssay AID485294 (National Center for Advancing Translational Sciences (NCATS), 2010):
Hit rate of the full screen: of about 370,000 compounds, about 150 (0.041%) were called active. The shares of active, inactive and inconclusive entries below differ from those in the screen. Calls come from the whole dose curve; as a rule, active = well fitted inhibition curve with a large enough effect; inconclusive = small, poorly fitted or top-dose-only effect; inactive = flat fitted curve, though single readings scatter. No potency is given beside an inconclusive call; the fits are too rough.

These molecules were tested against Beta-lactamase (Escherichia coli (strain K12)) (UniProt P00811) (assay: qHTS Inhibitors of AmpC Beta-Lactamase (assay with detergent)). Conditions: AmpC hydrolysis of nitrocefin, absorbance 480 nm, 0.01% Triton; activity change, negative = inhibition: at 114 µM (top of the series).
Sequence of UniProt P00811 (P00811 whole entry, looked up): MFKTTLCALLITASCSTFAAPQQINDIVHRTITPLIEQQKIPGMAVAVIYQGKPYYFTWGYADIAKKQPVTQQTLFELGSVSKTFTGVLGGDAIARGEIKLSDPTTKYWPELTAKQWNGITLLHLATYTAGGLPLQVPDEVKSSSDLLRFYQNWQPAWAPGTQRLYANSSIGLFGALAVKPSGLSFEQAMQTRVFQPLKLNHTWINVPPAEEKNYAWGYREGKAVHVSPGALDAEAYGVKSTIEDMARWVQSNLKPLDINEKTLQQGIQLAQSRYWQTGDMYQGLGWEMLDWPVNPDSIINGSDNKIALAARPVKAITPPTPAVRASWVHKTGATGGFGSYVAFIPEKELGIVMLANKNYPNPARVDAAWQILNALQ
Outline: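 AmpC (5.3 nM in the dispensed reagent) in 20 mM phosphate pH 7.0 with 0.01% (detergent screen) or 0.0001% Triton X-100 was preincubated with compounds for 15 min at room temperature. Nitrocefin was then added from an 800 uM solution, and hydrolysis was followed at 480 nm.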
Note: nearly all actives have a fitted effect of over 25% in size.
Potency is the fitted concentration of half-maximal effect; tags give direction and shape of the fitted curve.
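Throughout, for activity change, negative = inhibition: 0% = no-compound wells and -100% = no-enzyme wells.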

Question: Which “activity change, negative = inhibition” value does the source give for `N/C(=N\S(=O)(=O)c1ccccc1)c1ccc([N+](=O)[O-])cc1` here?
Answer: The value was inactive: -6.34%.

Question: Which Potency does the source give for `Cc1nn(-c2ccccc2)c(C)c1NC(=O)COC(=O)CCCOc1ccccc1` here?
Answer: The Potency was inconclusive [inhibitor, partial curve, poor fit].

Question: `Cc1cc(=O)c(C(=O)Nc2cccc(N3CCCC3=O)c2)nn1-c1ccccc1F` was tested. Which Potency did it give?
Answer: The Potency was inconclusive [inhibitor, full curve, poor fit].

Question: For `CC(=O)N1CCN(C(=O)c2ccc(S(=O)(=O)Nc3ccccc3C)cc2)CC1`, which Potency is on record?
Answer: The Potency was inconclusive [inhibitor, full curve, poor fit].

Question: `Cc1ccc(N=C2NC(=O)/C(=C\c3cccs3)S2)cc1C` was tested. Which Potency did it give?
Answer: The Potency was inconclusive [inhibitor, full curve].

Question: `COc1cccc(-n2nc3c(-n4ncc(C#N)c4N)nnc(C)c3c2C)c1` was tested. Which Potency did it give?
Answer: The Potency was inconclusive [inhibitor, full curve, poor fit].

Question: `COC(=O)c1cc(OC)c(OC)cc1N=CC1=C(O)CC(C)(C)CC1=O` was tested. Which Potency did it give?
Answer: The Potency was inconclusive [inhibitor, partial curve, poor fit].

Question: For `Cc1ccc(-c2ccc(SCC(=O)c3ccccc3)nn2)cc1`, which Potency is on record?
Answer: Its Potency is inconclusive [inhibitor, full curve, poor fit].

Question: With `O=C(Cn1nnc(-c2ccccc2)n1)c1ccccc1` as the molecule, how does the Potency read?
Answer: Its Potency is inconclusive [inhibitor, partial curve].

Question: For `CC1=C(C(=O)c2ccccc2)C(c2ccc(N3CCOCC3)cc2)NC(=O)N1` (stereo not drawn), which Potency is on record?
Answer: The Potency was inconclusive [inhibitor, partial curve, poor fit].

Question: Which “activity change, negative = inhibition” value does the source give for `O=c1[nH]c(=O)n(Cc2ccco2)c(O)c1C=NCc1ccco1` here?
Answer: Its value is inactive: -2.51%.

Question: With `COc1ccc(Cl)cc1NC(=S)NCCC(c1ccccc1)c1ccccc1` as the molecule, how does the Potency read?
Answer: The Potency was inconclusive [inhibitor, single point].

Question: For `CCCCC1=NN(C(=O)c2cccnc2)C(O)(C(F)(F)F)C1` (stereo not drawn), which Potency is on record?
Answer: Its Potency is inconclusive [inhibitor, single point].

Question: With `Cc1nc(CC(=O)c2ccc(O)cc2O)cs1` as the molecule, how does the “activity change, negative = inhibition” value read?
Answer: The value was inactive: -0.144%.

Question: For `O=C(O)c1ccc(N/N=C/C(Br)=C/c2ccccc2)cc1`, which “activity change, negative = inhibition” value is on record?
Answer: The value was inactive: -3.17%.

Question: For `Cc1cccc(NS(=O)(=O)c2ccc(C)c(C(=O)NCC(c3ccco3)N3CCCCC3)c2)c1` (stereo not drawn), which Potency is on record?
Answer: The Potency was inconclusive [inhibitor, full curve, poor fit].

Question: Which “activity change, negative = inhibition” value does the source give for `CCCCCN(C(=O)CCC(=O)OCC(=O)c1ccc(C(C)CC)cc1)c1c(N)n(CCCC)c(=O)[nH]c1=O` (stereo not drawn) here?
Answer: The value was inactive: 3.79%.

Question: `CS(=O)(=O)c1ccc(Cl)c(NC(=O)C2CCCN(C(=O)c3ccc(Cl)cc3)C2)c1` (stereo not drawn) was tested. Which Potency did it give?
Answer: The Potency was inconclusive [inhibitor, full curve].
